The campaign covered roughly 48,000 compounds. About 120 (0.25%) were called active. Roughly 4% stayed inconclusive and do not appear here. Calls come from the whole dose curve; as a rule, active = well fitted activation curve with a large enough effect; inconclusive = small, poorly fitted or top-dose-only effect, or another doubt; inactive = no such curve, though single readings can be large or run the other way. Some of the results follow.
Assay: Primary qHTS for Identification of Small Molecule Activators of Huntingtin-Antisense Promoter Activity; note: nearly all actives have a fitted effect of over 55% in size
Details: HEK293 HTT-AS promoter firefly luciferase reporter (activity 0% = vehicle and -100% = no light), 24 h; series mostly up to 57.5 µM; activity change, positive = activation: at the top concentration
In short: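 HEK293 Fluc reporter, 2,500 cells/well, 24 h pre-culture; cpds up to 57.5 uM final, 24 h 37 degrees C; Dual-Glo, 10 min RT; normalized vehicle = 0%, zero RLU = -100%.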

Activity change, positive = activation, inactive:
CCOC(=O)c1cn(CC(=O)Nc2ccc(OC)cc2OC)nn1 -3.51%, Fc1ccc(Nc2ncnc3onc(-c4ccc(Cl)cc4)c23)cc1Cl -23%, O=C(C1CCCN(S(=O)(=O)c2ccc(Br)s2)C1)N1CCN(c2ccccc2F)CC1 (stereo not given) -26.9%, COc1ccc(C)cc1NC(=O)NC(C)c1c(-n2cccc2)sc(C)c1C (stereo not given) -36.8%, CCN(CC)CCCNc1sc(S(=O)(=O)c2ccccc2)nc1S(=O)(=O)c1ccc(Cl)cc1 -5.89%, CCOC(=O)c1c(C)[nH]c(CCC(=O)NC(C)c2ccccc2)c1C (stereo not given) -2.74%, CCN(C(=O)c1sc2nc3n(c(=O)c2c1C)CCCCC3)c1ccc(OC)cc1 -8%, Cc1ccc(Cl)cc1NC(=O)Cn1c(=O)n(CCC(=O)NCc2ccc3c(c2)OCO3)c(=O)c2sccc21 -23.6%, CCCC(=O)Nc1nnc(S(=O)(=O)N2CCCCCC2)s1 -7.82%, COC(=O)C(NC(=O)CCc1c(C)nc2c(-c3ccccc3)c(C)nn2c1C)C(C)C (stereo not given) -34%, CC(C)Cc1ccc(S(=O)(=O)N2CCN(Cc3noc(CCC(=O)N4CCCCC4)n3)CC2)cc1 -31.2%, CC1=C(c2ccc(F)cc2)S(=O)(=O)N=C1N1CCC(C(=O)NCCc2ccccc2C)CC1 -10.7%, COc1ccc(C2C(C(=O)Nc3ccccc3)=C(C)Nc3nc(SCC(=O)c4ccc(C)cc4)nn32)cc1 (stereo not given) -5.91%, Cc1c(C(=O)Nc2ccc(-n3c(C)nc4ccccc4c3=O)cc2)cccc1[N+](=O)[O-] -18.7%, Cc1ccc(CNC(=O)c2ccc(CSCc3cccc(C)c3)o2)cc1 -18.3%, Cc1cc(C)cc(-n2c(SCC(=O)N3CCOCC3)nc3c([nH]c4ccccc43)c2=O)c1 -2.26%, COc1cccc(-c2nnc(-c3ccccc3NC(=O)c3ccc(F)cc3F)o2)c1 -1.65%, Cc1ccc(CCNS(=O)(=O)c2c(C)nc3sc(C)c(C)n3c2=O)cc1 -5.55%, Cc1ccc(NS(=O)(=O)c2ccc3[nH]c4c(c3c2)CCCC4)cc1N(C)C -38.5%, CC1CCN(S(=O)(=O)c2ccc3c(c2)N(CC(=O)NCCc2ccccc2)C(=O)CO3)CC1 -5.17%, Cc1noc(-c2ccc(NC(C)c3ccccc3)c([N+](=O)[O-])c2)n1 (stereo not given) -8.93%, CCC(=O)N1CCc2cc(Br)cc(S(=O)(=O)N3CCN(c4ccccc4OC)CC3)c21 -7.42%, CCOC(=O)CC(=O)CSc1nc2ccsc2c(=O)n1Cc1ccccc1 -21.2%, Cc1ccc(CNC(=O)c2nc(SCc3ccccc3C)ncc2Cl)cc1 -14.3%, COc1ccc(-c2oc3c(CC=C(C)C)c(O)cc(O)c3c(=O)c2O)cc1 -22.1%, CC1(c2ccccc2)CC(C)(C)N(C(=O)c2cccc(Cl)c2)c2ccccc21 (stereo not given) -25.6%, O=C1C(Cl)=C(NCCN2CCOCC2)C(=O)c2ncccc21 -95.5%, COc1ccccc1NC(=O)c1ccc(CN2C(=O)C(C)=C(c3ccc(C)c(C)c3)S2(=O)=O)cc1 -16.5%, COc1ccc(C(=O)Nc2nnc(SCc3cc(=O)c4cc(C)cc(C)c4[nH]3)s2)cc1 0.587%, Cc1ccc(CNC(=O)CCCn2c(=O)c3ccccc3n(CC(=O)Nc3ccc(C)c(C)c3)c2=O)cc1 -4.23%, CCOc1ccc(CCNC(=O)CCCn2c(=O)c3cccn3c3ccccc32)cc1 -19.7%, COC(=O)NCC(c1cccnc1)N1CCN(c2ccc(F)cc2)CC1 (stereo not given) -11.6%, Cc1ccc(-n2ncc3c(NCCC4=CCCCC4)ncnc32)cc1 8.91%, Cc1ccc(Cl)cc1NC(=O)C(C)n1nc(-c2ccccc2)ccc1=O (stereo not given) -23.5%, Cn1c(=O)c2c(nc(SCC(=O)Nc3ccccc3F)n2Cc2ccc(Cl)cc2)n(C)c1=O -4.2%, CCc1ccccc1NC(=O)CCNS(=O)(=O)c1ccc2c(c1)CCN2C(=O)C1CC1 -9.61%, COc1ccc(C2=CC(c3ccccc3Cl)n3nc(-c4ccc(Cl)cc4)nc3N2)cc1 (stereo not given) -49%, Cc1ccc(Cl)cc1N1CCN(C(=O)Cn2cnc3sc(C)c(S(=O)(=O)N4CCC(C)CC4)c3c2=O)CC1 -38.6%, COC(=O)c1scc(-c2ccc(C)cc2)c1S(=O)(=O)N1CCN(c2ccc(C(C)=O)cc2)CC1 -24.9%, Cc1nc2nc(NCc3ccc(Cl)cc3)[nH]n2c(=O)c1Cc1ccccc1 3.89%, CCCn1c(CCC(=O)Nc2ccc(OCC)cc2)nc2cccnc21 -9.59%, CCN(CC)CCCCNc1ncc2c(n1)N(C)C(=O)N(c1c(Cl)c(OC)cc(OC)c1Cl)C2 -8.72%, CC1CCc2c(sc(NC(=O)C3c4ccccc4Oc4ccccc43)c2C#N)C1 (stereo not given) -41.7%, Cc1ccc(-n2c(=O)c3c(C)c(C)sc3n(CC(=O)NCc3ccccc3)c2=O)cc1C -10.6%, CCOC(=O)c1c(C)oc2nc(C)nc(NCc3ccc(F)cc3)c12 13.7%, CCN1CCC[C@H]1CNC(=O)c1cc(S(N)(=O)=O)ccc1OC 3.46%, COc1ccccc1N1CCN(CCCNC(=O)c2cnn(-c3cccc(Cl)c3)c2C2CCN(C(=O)OC(C)(C)C)CC2)CC1 -27.6%, Cc1ccc(CN2C(=O)C3(c4ccccc42)N(c2cccc(F)c2)C(=O)CS3(=O)=O)cc1 (stereo not given) -29.9%, CCOc1ccc(CNC(=O)Cn2cc3c(n2)-c2c(oc(C(=O)N4CCOCC4)c2C)CC3)cc1 -34.9%, Cc1ccccc1CN1CCC(CNc2ncnc3onc(-c4ccc(F)cc4)c23)CC1 -21.6%, CCOC(=O)c1c(C)c(-c2ccccc2)n(CC(=O)Nc2cc(C)ccc2OC)c1C -13.2%, COc1cc(NC(=O)NC(C)c2c(-n3cccc3)sc3c2CCCC3)cc(OC)c1OC (stereo not given) 0%, CC(=O)Nc1ccc2nc(-c3cc(C)ccc3C)[nH]c2c1 -0.265%, CCc1cccc(-n2nnc(-c3nsc(NC(=O)c4cccs4)n3)c2C)c1 24.9%, CCCCN(CC)CCNC(=O)c1cn(C)c(=O)c2c1c1ccccc1n2C 2.69%, Cc1ccc(OCc2ccc(-c3nc(C#N)c(NCc4cccnc4)o3)o2)cc1 -44.9%, CC1CCN(CCCC(=O)c2ccc(F)cc2)CC1 -8.04%, COc1ccccc1N1CCN(S(=O)(=O)c2c(C)sc3ncn(CC(=O)N(C)c4ccc(Cl)cc4)c(=O)c23)CC1 -17.9%, CCNC(=O)c1c(NC(=O)Cc2coc3cc(C)cc(C)c23)sc2c1CCCC2 -7.77%, Oc1c(C(c2ccccc2F)N2CCN(Cc3ccccc3)CC2)sc2nc(-c3ccco3)nn12 (stereo not given) -17.6%
